The supplement of paper PMC3334620
The full ranking holds about 33,000 sequences; the median of “E-score (-0.5 to 0.5)” is about -0.036, and the highest 2% start at about 0.37. The list shows a part of the results.

What follows are sequences tested against T1, Yer064c (UniProt P40041) (assay: PBM E-score (8-mer binding enrichment) (E-score (-0.5 to 0.5)); higher = stronger / more preferred TF binding; most listed sequences are background and not binding sites). Settings: protein concentration: 200 nM; construct: GST-full length.
T1 sequence: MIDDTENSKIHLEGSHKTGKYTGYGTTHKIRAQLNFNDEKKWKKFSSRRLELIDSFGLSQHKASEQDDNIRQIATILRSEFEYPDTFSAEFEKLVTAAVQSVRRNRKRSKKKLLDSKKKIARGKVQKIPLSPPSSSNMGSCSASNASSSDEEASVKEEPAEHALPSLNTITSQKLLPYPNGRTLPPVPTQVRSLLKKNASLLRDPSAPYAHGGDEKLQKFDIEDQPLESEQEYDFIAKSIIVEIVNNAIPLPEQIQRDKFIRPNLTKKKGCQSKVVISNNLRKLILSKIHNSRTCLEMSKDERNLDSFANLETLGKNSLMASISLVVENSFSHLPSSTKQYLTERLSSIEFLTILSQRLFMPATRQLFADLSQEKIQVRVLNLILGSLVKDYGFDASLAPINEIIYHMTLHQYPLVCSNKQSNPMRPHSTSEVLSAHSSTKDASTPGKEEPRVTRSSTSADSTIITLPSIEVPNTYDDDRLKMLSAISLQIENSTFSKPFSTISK
In short: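 PURExpress in vitro transcription/translation supplied GST-tagged yeast transcription factors, either full-length or DNA-binding domain. Applied at about 100-200 nM to universal all-10-mer Agilent arrays double-stranded by primer extension, the bound protein was detected with fluorescent anti-GST. E-scores, modified Wilcoxon-Mann-Whitney statistics, were given by the Universal PBM Analysis Suite to ungapped eight-base words pooled with their reverse complements after masliner normalisation.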

Sequence | PBM E-score
GCCTACCC | -0.178
GTTCAAGA | 0.0547
ATGGAGCA | -0.08
CCGCCGTC | 0.0187
GCCCTACC | -0.203
AACTCCTC | -0.169
GCGGCATA | -0.154
TAATGAAA | 0.103
TACTTACA | -0.0596
CAGGCGAG | -0.0443
AGGACATC | -0.377
CGCGCAGA | -0.059
ATGGTGGG | -0.221
TACGCATA | -0.0887
TATCGAAA | 0.00852
CTTGTCGC | -0.202
ACTGAGAT | 0.133
AGGGAACA | -0.149
AACTAAAG | 0.0976
AAATATGG | -0.0617
CTTGGGCC | -0.202
ATCAAGGG | 0.18
GTATCAAC | 0.065
CAGGATTA | 0.12
ACGACGAT | 0.023

Sequence | PBM E-score
CGAGCACC | -0.1
CCTGACTC | 0.481
CATCTTCA | -0.0602
CAGAGATG | -0.0466
AGACCTTC | -0.306
GCCCATCA | -0.183
AACTGAAA | -0.018
CTCTCGCA | 0.158
CCCAAGAC | 0.0557
GCGCCCGC | -0.309
GCGATCCC | -0.123
GCAAGAAC | 0.0319
CCAGCGCG | -0.179
CATCGGTC | -0.0673
TCAATTGA | 0.165
CAGAAATA | -0.0853
CTCCGAAG | -0.0766
AACGGCAC | -0.179
GAGCTCGA | 0.038
ATGCCCTC | -0.0925
CCTTTGTC | -0.106
ATCATCGC | 0.239
CTACAGAA | 0.113
CCCTTGTA | -0.261
CAGAGATC | -0.184

Sequence | PBM E-score
TCCGGGAA | -0.103
GTGATTTA | 0.35
TAGGCACA | -0.226
AATCGTGG | 0.117
CCCTCACG | -0.109
AATTTTTG | 0.0648
ATCCAGTA | -0.00593
AGACGACG | -0.265
GGGTTGAC | 0.193
AAAAGGAG | -0.108
GCATGCCC | -0.0887
AAGCACGG | -0.314
TGAGGACA | -0.178
AAGTCAAA | 0.288
GCTCGCAC | -0.24
TCTAACCA | 0.117
CGGCCGGA | -0.19
CCTACAGC | -0.0789
AAACATTA | -0.0151
CCCACAGG | -0.12
CCGCTTAG | -0.0707
ACGCACTA | -0.101
AGCGCGGA | -0.0767
CTTTGCCC | -0.264
AGACCCCC | -0.38

Sequence | PBM E-score
ATCTATTA | -0.00516
ATGTATGG | -0.153
CCCCTGAA | -0.18
CATCCAAG | -0.0881
AAGGGTAG | -0.127
CCTTCAAG | -0.0863
AGCACGAT | -0.0349
GCTAGTTA | 0.00744
CAACTCAC | 0.224
GCAGAATA | -0.133
ACGAGCCC | -0.216
TGAACAAA | -0.159
ATACCGAA | -0.099
ATTCTATG | -0.0597
AGGATATG | -0.217
CAGTCTGG | -0.101
ATACGGGC | -0.205
ATGTTCAA | -0.00212
CGAAAGCC | -0.268
CCGCCTTA | -0.211
CAGGTTGG | -0.126
ACAATGCA | 0.0215
CCGCACGG | -0.24
CGTGGTTA | 0.236
AGTCCGTC | 0.126

Sequence | PBM E-score
AAGACACG | -0.0488
AAGTTCCT | -0.196
AGTACTAA | 0.239
AGATTCCA | 0.0276
ATAGTAGA | -0.0439
ACGATGCA | -0.119
AGTATCTG | -0.0902
ACTGTTGA | 0.111
TATATGAA | 0.226
GAGGTATA | 0.165
GGCCAACC | -0.207
TATACGAA | 0.0616
AATGATAA | 0.0741
ACACTCCT | -0.0508
AATTCCAC | -0.0666
ATGGGGCG | -0.111
TCTGGCCA | -0.057
GCGATACC | -0.165
CCTTAGCA | -0.152
AGAACTGA | 0.178
ATCGACGC | -0.136
GGCCAGAC | -0.205
ATTTAGTA | 0.253
GCGGTTGA | 0.13
GGATTAAA | 0.205

Sequence | PBM E-score
AAACGTAT | 0.0553
GCGCAAAA | 0.00891
AAATGTGG | -0.0256
ACTGGCAA | 0.0286
ACCGTAAA | 0.0236
CACGTTGC | -0.00855
AGGGAGTA | 0.0389
AAGTTCAT | 0.0173
GAGCGCGC | -0.194
GGACCCCC | -0.312
AGACCACC | -0.141
ACTTGCAC | -0.00112
AGGTCGAC | -0.00066
AGGCGGCC | -0.104
CCTTCAGC | -0.126
CCGCGGAG | -0.127
CAGACATA | -0.166
AAACGGCA | -0.142
ACTAGCGA | 0.148
ATACATCA | -0.131
GTCTTCAA | 0.144
GGGCTCAA | -0.0532
CAGAGGTA | -0.0515
GGATCCAC | -0.156
GATGCCGC | -0.28

Sequence | PBM E-score
CTAACACC | -0.0031
GGCGTAGA | -0.153
CGAGCTCG | 0.154
AATTCGCA | -0.167
GATCACGA | 0.0675
CCCTACGG | -0.216
CGCGTAGC | -0.0788
GACACTAC | -0.0177
ATACTCGC | -0.00994
CTAGAATA | 0.0162
GAGCACTA | 0.0818
ATCGCAAA | -0.00969
GCTAATCA | 0.372
AGCGTTGG | -0.135
GCTGCCCA | -0.206
AAGATGGA | -0.142
ATTCGCTC | 0.0766
CGAAGTCA | 0.437
TATTGCCA | -0.211
GCGCTGGA | -0.107
GATGTTCC | -0.164
ACAGCTCC | 0.0343
AAATGTAG | -0.106
TACAATCA | 0.335
ATTCGTAC | 0.113

Sequence | PBM E-score
AAGAGATA | -0.138
GATCGACA | -0.179
ACCCTCCC | -0.0175
AATCTTGT | 0.115
GTCGCAGA | 0.077
CGTGCTAA | -0.00101
CCATTTGA | -0.0671
TCTTCGCA | -0.0221
CTTCAGTC | 0.292
AACGAAGG | -0.209
TACTCCAA | 0.00552
ACGTCAAC | 0.0642
GATCAGGC | 0.00236
ATTGAGTG | 0.149
TCCAAGGA | -0.0695
AGTCTAGA | 0.165
ATATCTGC | -0.0998
ACGATAAA | -0.203
ACGTCCCT | -0.256
ACATGTAA | 0.0621
GCCTTGGA | -0.138
AACTCTCT | 0.0451
GTTGACTA | 0.457
AAAGTAGG | -0.13
AGAGGCTG | -0.167

Sequence | PBM E-score
TAGGCCCA | -0.223
CTCAAACA | 0.174
ACTGCCCG | 0.153
ATGTGAAC | -0.0638
AGCGCTTA | -0.111
ACGACAAC | 0.0443
TAAATTAA | 0.119
CCTTGATA | -0.00742
ATTGCACC | -0.0714
GGCGCTTA | -0.373
ATCTAGCA | -0.135
ATATTAAT | 0.0804
CACCATTA | -0.0505
ACTGCTTA | 0.0232
ATATGACG | 0.0376
CATCTCGG | 0.181
AGAGCCAG | -0.228
ACCACAGA | -0.0666
AAATCGTC | 0.0138
